Data on 54 molecules can be found in PubChem BioAssay AID1346428 (National Center for Advancing Translational Sciences (NCATS), 2018).

Several values for one entry are separate records, joined by “and”; a condition that tells them apart may be missing. Equal entries are not always repeated. The campaign covered roughly 48,000 compounds. About 1,200 (2.5%) were called active. About 2% were inconclusive and are not listed.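 Rule for the calls: active = activation of at least 60% and not above a set upper limit (about 1 call in 100 departs from these limits); inconclusive = activation of 40% to 60%, or above that upper limit; inactive = activation under 40%.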 The list shows a part of the results.

Chain of UniProt O75388 (O75388 whole entry, looked up, the tested form may be a part): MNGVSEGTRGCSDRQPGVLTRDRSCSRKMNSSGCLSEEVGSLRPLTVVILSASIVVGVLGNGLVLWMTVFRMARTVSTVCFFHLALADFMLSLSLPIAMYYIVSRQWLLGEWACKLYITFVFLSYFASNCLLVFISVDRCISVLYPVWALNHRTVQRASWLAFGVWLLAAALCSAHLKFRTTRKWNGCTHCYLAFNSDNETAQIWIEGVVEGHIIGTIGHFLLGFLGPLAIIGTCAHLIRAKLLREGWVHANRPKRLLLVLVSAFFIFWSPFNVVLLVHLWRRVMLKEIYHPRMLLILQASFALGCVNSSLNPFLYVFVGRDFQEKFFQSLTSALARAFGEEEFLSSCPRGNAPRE

In this experiment the target is Probable G-protein coupled receptor 32 (Homo sapiens) (UniProt O75388). The experiment is described as follows: qHTS for Agonists of Human Resolvin D1 Receptor DRV1. Note: 0% is about no effect. Conditions: CHO-K1 GPR32 beta-arrestin PathHunter luminescence, 90 min; at 76.9 µM; stronger effect = higher value; zero percent set by DMSO-only wells. An outline of the steps:
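Agonism was scored as beta-arrestin recruitment to ProLink-fused GPR32 in stably transfected CHO-K1 cells, giving a chemiluminescent beta-Gal signal; compounds were incubated 90 min at 37 °C.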
As to `O=C(CCCn1c(=O)c2sccc2n(Cc2ccc(F)cc2Cl)c1=O)NCc1ccc2c(c1)OCO2`, the activation is inactive: -18.4%. For `CCCN(CC1CC1)c1nc(C)nc(Nc2c(Cl)cc(Cl)cc2Cl)c1Cl`, the activation is inactive: -13.9%. The value for `COc1ccc2cc(CNc3ccc(C)cc3)c(=O)n(CC(=O)Nc3ccc(OC)c(Cl)c3)c2c1` was inactive: -35.1%; that for `CCCCc1ccc(C(=O)Nc2ccc3nc(N(CC)CC)cc(C)c3c2)cc1` was inactive: -5.05%; that for `Cc1c(C(=O)N2CCCC2)oc2c1-c1nn(CC(=O)NCc3cccc(F)c3)cc1CC2` was inactive: -3.73%.

On to `Cc1ccc2c(c1)N(C(=O)N1CCC(C(=O)NCCC3=CCCCC3)CC1)CC(C)O2` (centres undefined), for which the activation was inactive: -14.6%.

On to `CCNC(=O)c1cnc2sc(N3CCC(C)CC3)nn2c1=O`, for which the activation was inactive: 12.2%.

In the case of `NC(=Nc1ccccc1)Nc1ccccc1`, the activation is inactive: -18.1% and inactive: -43.4%. The value for `O=C(Nc1cccc(Cl)c1)c1ccc2nc(Cc3ccccc3)oc2c1` was inactive: 21.9%; that for `OCc1cnc(SCc2cccc(F)c2)n1Cc1ccc(F)cc1` was active: 88.6%; that for `O=C(CCc1nc2cccnc2n1Cc1ccccc1)NCc1cccc(Cl)c1` was inactive: -12.2%. For `Cc1ccccc1Nc1ncnc2c1c(-c1ccccc1)cn2-c1ccc(F)cc1`, the activation is inactive: -38.6%.

Regarding `CCOc1ccc(CCNc2ncnc3onc(-c4ccc(F)cc4)c23)cc1OCC`, the activation was inactive: 1.12%. Regarding `CCCCn1c(CNC(=O)C23CC4CC(CC(C4)C2)C3)nnc1SCC(=O)Nc1ccccc1`, the activation is inactive: -0.346%. The result for `Cc1ncc(COC(=O)C(C)C)c2cc(C(=O)Nc3ccccc3C(F)(F)F)c(=O)oc12` reads inactive: -15.2%.

Regarding `CCN(CC)CCCNC(=O)CCc1c(C)n(CC)c2cc(-c3ccccc3OC)nn2c1=O`, the activation is inactive: 19.3%. Turning to `Cc1cccc(N2C(=O)CS(=O)(=O)C23C(=O)N(C)c2ccccc23)c1` (centres undefined), the activation was inactive: -5.89%.

`COC(=O)NNC(=O)C1CCC(C)CC1` (centres undefined): the activation is inactive: -3.97%.

`CN1c2ccc(Cl)cc2-c2nc(SCC(=O)Nc3cc(F)ccc3F)ncc2S1(=O)=O`: the activation was inactive: 2.11%. As to `CCc1cccc(NC(=O)c2nc(-c3ccncc3)no2)c1`, the activation was inactive: -8.94%. The result for `CCOc1ccc(C(=O)Nc2ccc(-c3nc4cc(C(C)C)ccc4o3)cc2)cc1Cl` reads active: 84%.

For the molecule `COc1ccc(C2=NN(CC(=O)NCc3ccccc3Cl)C(=O)CC2)cc1`, the activation was inactive: -15.5%. For the molecule `Cc1ccc(CCNC(=O)c2c(C)oc3ncnc(N4CCOCC4)c23)cc1`, the activation was inactive: -11.5%. The result for `Fc1cccc(NCc2cccn2-c2nnc(N3CCOCC3)s2)c1` reads active: 66.3%; that for `Cc1ccc(NCc2cccn2-c2nnc(N3CCC(C(=O)NCCc4ccccc4)CC3)s2)cc1`, inactive: -32.3%. The value for `COc1cccc(CNC(=O)N2CCC(CN3CCC(C)CC3)CC2)c1` was inactive: -3.11%; that for `COc1ccc(-c2c3c(nc4sc(C(=O)Nc5ccc(Cl)cc5)c(N)c24)CC(C)(C)CC3=O)cc1` was inactive: -7.67%. The value for `Cc1ccc(CN(C(=O)COc2ccc(C(C)(C)C)cc2)C2CCS(=O)(=O)C2)o1` (centres undefined) was inactive: -27.7%; that for `COc1ccc(NC(=O)CSc2nc(-c3ccc(OC)cc3)[nH]c2-c2ccc(F)cc2)cc1` was inactive: -19%; that for `CN(C)c1ccc(CNC(=O)CCC(=O)N2Cc3ccccc3Oc3ncccc32)cc1` was inactive: -14.4%. `COc1cc2cc(CNc3ccc(C)cc3)c(=O)n(CC(=O)Nc3ccc(C(C)C)cc3)c2cc1OC`: the activation was inactive: -1.14%. The value for `CCn1ccc2cc(S(=O)(=O)N3CCC(C(=O)NCCc4ccc(SC)cc4)CC3)ccc21` was inactive: -5.79%. Regarding `Clc1ccc(CNc2nc3ccccc3c3nc(-c4cccnc4)nn23)cc1`, the activation was inactive: -7.86%. The result for `CCc1cccc(C)c1NC(=O)CN1C(=O)c2c(c3ccccc3n2C)C1c1ccc(OC)cc1` (centres undefined) reads inactive: -16.1%; that for `Cn1nnc2c(N3CCCCC3)ncnc21`, inactive: -8.14%; that for `CCOc1ccccc1NC(=O)CN(CCc1ccccc1)S(=O)(=O)c1ccc(C)cc1`, inactive: -3.98%. Take `COCCc1nn2c(=O)cc(COC(=O)c3cccs3)nc2s1`: the activation was inactive: 7.07%. Turning to `COc1cccc(CCNC(=O)c2c(O)nc3cc(C)ccn3c2=O)c1`, the activation was inactive: -6.96%. Take `COc1ccc(-c2nc(CCNC(=O)c3cccs3)cs2)cc1OC`: the activation was inactive: -2.92%. The result for `CCCCN(C)C(=O)CN1C(=O)CCn2nc(-c3cn(C)c4ccccc34)cc21` reads inactive: 32.7%; that for `COCCCNC(=O)Nc1cc(C(=O)NCc2ccc(OC)cc2)ccc1N1CCCC1`, inactive: -13.6%; that for `CCc1ccccc1NC(=O)C(NS(=O)(=O)c1ccc2c(c1)CCC(=O)N2)c1ccccc1` (centres undefined), inactive: -1.91%. The value for `CC(=O)OCC(=O)[C@@]1(O)CC[C@H]2[C@@H]3CCC4=CC(=O)C=C[C@]4(C)[C@H]3[C@@H](O)C[C@@]21C` was inactive: -5.33%; that for `COc1ccc2cc(CNc3ccccc3)c(=O)n(CC(=O)Nc3ccc(C)cc3C)c2c1` was inactive: -24.9%; that for `O=C1NC(c2cccc([N+](=O)[O-])c2)=CCN1c1ccccc1O` was inactive: -12.2%. The result for `Cc1ccc2c(CC(=O)Nc3c(C(=O)Nc4cccc(Cl)c4)oc4ccccc34)coc2c1C` reads inactive: 3.57%; that for `Cc1ccc2nc(SCc3nc(-c4ccccc4C)no3)[nH]c2c1`, inactive: 10.8%. Consider `Cc1ccccc1Cn1c(Oc2ccccc2F)nc2c1c(=O)n(C)c(=O)n2C`, for which the activation is inactive: 3.55%.

Regarding `Cc1ccc(N2CCN(C(=O)C3CCC(CNS(=O)(=O)c4ccc(Br)s4)CC3)CC2C)cc1` (centres undefined), the activation was inactive: 6.45%. In the case of `CCCCN(CC)CCNC(=O)Cn1c(=O)c2cccn2c2cccnc21`, the activation is inactive: -5.7%. Consider `Cc1ccc(NC(=O)Cn2c(=O)c(C(F)(F)F)nc3ccccc32)c(C)c1`, for which the activation was inactive: 4.74%. Take `CN(Cc1ccccc1)C(=O)Cn1ncc2c3ccccc3n(Cc3cccc(Cl)c3)c2c1=O`: the activation is inactive: -6.82%. The result for `COc1ccc(NC(=O)CSC2=Nc3ccccc3C3=NC(Cc4ccccc4)C(=O)N23)cc1Cl` (centres undefined) reads inactive: -10.8%; that for `Cc1ccc(Nc2cc(C(=O)NC3CCCC3)c3ccccc3n2)c(C)c1`, inactive: -8.32%.
